Results: US20060057673A1, “Epitope analogs” (priority 2004, published 2006)
Not every detail of the peptide structures is certain; ends, links or a residue may be inferred. Some compounds share one wording; it may come from a single statement. Where a SMILES comes first, the peptide text is derived from it. Where no end group is shown, it is not given here. [ ]: non-standard residue; d: D form. Phe(4-F) = N[C@@H](Cc1ccc(F)cc1)C(=O)O; Cha = N[C@@H](CC1CCCCC1)C(=O)O; Phg = N[C@H](C(=O)O)c1ccccc1; Nle = CCCC[C@H](N)C(=O)O; Nva = CCC[C@H](N)C(=O)O

test system: T cells that recognized native PSMA288-297 peptide; assay: IFN-gamma ELISPOT of splenocytes after PSMA peptide immunization or boost; format: in vivo, HHD transgenic mice; settings: splenocytes stimulated with native peptide

Molecule	Frequency of IFN-γ producing T cells recognizing native PSMA288-297 (ELISPOT)
CCCC[C@H](NC(=O)CN)C(=O)N1CCC[C@H]1C(=O)N[C@@H](CO)C(=O)N[C@H](C(=O)N1CCC[C@H]1C(=O)N[C@H](C(=O)N[C@@H](Cc1c[nH]cn1)C(=O)N1CCC[C@H]1C(=O)N[C@@H](CCC)C(=O)O)C(C)C)[C@@H](C)CC [L289Nle 1297Nva]	slightly higher (but significant) activity than the native peptide
CCC[C@H](NC(=O)[C@@H]1CCCN1C(=O)[C@H](Cc1c[nH]cn1)NC(=O)[C@@H](NC(=O)[C@@H]1CCCN1C(=O)[C@@H](NC(=O)[C@H](CO)NC(=O)[C@@H]1CCCN1C(=O)[C@H](CC(C)C)NC(=O)CN)[C@@H](C)CC)C(C)C)C(=O)O [Peptide 1297Nva]	slightly higher (but significant) activity than the native peptide
CC[C@H](N)C(=O)N[C@@H](CC(C)C)C(=O)N1CCC[C@H]1C(=O)N[C@@H](CO)C(=O)N[C@H](C(=O)N1CCC[C@H]1C(=O)N[C@H](C(=O)N[C@@H](Cc1c[nH]cn1)C(=O)N1CCC[C@H]1C(=O)N[C@H](C(=O)O)[C@@H](C)CC)C(C)C)[C@@H](C)CC [Peptide G288Abu]	slightly higher (but significant) activity than the native peptide
CC[C@H](C)[C@H](NC(=O)[C@@H]1CCCN1C(=O)[C@H](Cc1c[nH]cn1)NC(=O)[C@@H](NC(=O)[C@@H]1CCCN1C(=O)[C@@H](NC(=O)[C@H](CO)NC(=O)[C@H](Cc1c[nH]c2ccccc12)NC(=O)[C@H](CC(C)C)NC(=O)CN)[C@@H](C)CC)C(C)C)C(=O)O [Peptide P290W]	increased priming of immune responses

target: HLA-A*0201 (Homo sapiens, UniProt P04439, D140Y/D185E/D98H/E176V/E277Q/G131W/G231S/I119V/I121R/I166T/I218V/L300P/L318F/N151K/N90K/P208A/P217A/Q86G/Q94H/R138H/R169H/T345S); assay: Peptide stability using T2 cells; format: binding; set-up: endogenous in cells; host or cells: T2 cells; settings: T2 cells loaded at saturation, chased with emetine; decay to 50% of signal at 0 hours

Molecule	Stability (T½)	Stability (T½) (Hrs)
CCC[C@H](NC(=O)[C@H](CO)NC(=O)[C@@H](NC(=O)[C@@H](N)Cc1ccccc1)C(C)C)C(=O)N[C@@H](CCCCN)C(=O)N[C@H](C(=O)N[C@@H](Cc1ccccc1)C(=O)N[C@@H](Cc1ccc(O)cc1)C(=O)N[C@H](C(=O)O)C(C)C)[C@@H](C)CC [SSX2 41-49 (K41F, A42V, E44Nva), FVS(Nva)KIFYV] (H-FVS[Nva]KIFYV-OH)	>24 h	–
CC[C@H](C)[C@H](NC(=O)[C@H](CCCCN)NC(=O)[C@H](CCC(=O)O)NC(=O)[C@H](CO)NC(=O)[C@H](Cc1cccc2ccccc12)NC(=O)[C@@H](N)CCCCN)C(=O)N[C@@H](Cc1ccccc1)C(=O)N[C@@H](Cc1ccc(O)cc1)C(=O)N[C@H](C(=O)O)C(C)C [SSX2 41-49 (A42(Nal-1)), KNal-1SEKIFYV]	–	N/B
CC[C@H](C)[C@H](NC(=O)[C@H](CCCCN)NC(=O)[C@H](CCC(=O)O)NC(=O)[C@H](CO)NC(=O)[C@@H](NC(=O)[C@@H](N)Cc1ccccc1)C(C)C)C(=O)N[C@@H](Cc1ccccc1)C(=O)N[C@H](C(=O)N[C@H](C(=O)O)C(C)C)c1ccccc1 [SSX2 41-49 (K41F, A42V, Y48Phg), FVSEKIF(Phg)V] (H-FVSEKIF[Phg]V-OH)	>24 h	–
CCCC[C@H](NC(=O)[C@H](Cc1ccc(O)cc1)NC(=O)[C@H](Cc1ccccc1)NC(=O)[C@@H](NC(=O)[C@H](CCCCN)NC(=O)[C@H](CCC(=O)O)NC(=O)[C@H](CO)NC(=O)[C@@H](NC(=O)[C@@H](N)Cc1ccccc1)C(C)C)[C@@H](C)CC)C(=O)O [SSX2 41-49 (K41F, A42V, V49Nle)]	>24 h	–
FVSEKVFYV [SSX2 41-49 (K41F, A42V, I46V)]	24 h	–
CC[C@H](C)[C@H](NC(=O)[C@H](CCCCN)NC(=O)[C@H](CCC(=O)O)NC(=O)[C@H](CO)NC(=O)[C@H](C)NC(=O)[C@@H](N)Cc1ccc(F)cc1)C(=O)N[C@@H](Cc1ccccc1)C(=O)N[C@@H](Cc1ccc(O)cc1)C(=O)N[C@H](C(=O)O)C(C)C [SSX2 41-49 (K41(Phe-4F))] (H-[Phe(4-F)]ASEKIFYV-OH)	>24 h	–
CC[C@H](C)[C@H](NC(=O)[C@H](CCCCN)NC(=O)[C@H](CCC(=O)O)NC(=O)[C@H](CO)NC(=O)[C@H](C)NC(=O)[C@@H](N)c1ccccc1)C(=O)N[C@@H](Cc1ccccc1)C(=O)N[C@@H](Cc1ccc(O)cc1)C(=O)N[C@H](C(=O)O)C(C)C [SSX2 41-49 (K41(Phg))] (H-[Phg]ASEKIFYV-OH)	>24 h	–
CCCC[C@H](NC(=O)[C@H](CCCCN)NC(=O)[C@H](CCC(=O)O)NC(=O)[C@H](CO)NC(=O)[C@@H](NC(=O)[C@@H](N)Cc1ccccc1)C(C)C)C(=O)N[C@@H](Cc1ccccc1)C(=O)N[C@@H](Cc1ccc(O)cc1)C(=O)N[C@H](C(=O)O)C(C)C [SSX2 41-49 (K41F, A42V, I46Nle), FVSEK(Nle)FYV] (H-FVSEK[Nle]FYV-OH)	19 h	–
CC[C@H](C)[C@H](NC(=O)[C@H](CCCCN)NC(=O)[C@H](CCC(=O)O)NC(=O)[C@H](CO)NC(=O)[C@H](C)NC(=O)[C@@H](N)Cc1ccc(OC)cc1)C(=O)N[C@@H](Cc1ccccc1)C(=O)N[C@@H](Cc1ccc(O)cc1)C(=O)N[C@H](C(=O)O)C(C)C [SSX2 41-49 (K41(O-methyl Tyr))] (H-Y(Me)ASEKIFYV-OH)	20 h	–
CCC[C@H](NC(=O)[C@H](CCCCN)NC(=O)[C@H](CCC(=O)O)NC(=O)[C@H](CO)NC(=O)[C@@H](NC(=O)[C@@H](N)Cc1ccccc1)C(C)C)C(=O)N[C@@H](Cc1ccccc1)C(=O)N[C@@H](Cc1ccc(O)cc1)C(=O)N[C@H](C(=O)O)C(C)C [SSX2 41-49 (K41F, A42V, I46Nva), FVSEK(Nva)FYV] (H-FVSEK[Nva]FYV-OH)	>24 h	–
CC[C@H](NC(=O)[C@H](Cc1ccc(O)cc1)NC(=O)[C@H](Cc1ccccc1)NC(=O)[C@@H](NC(=O)[C@H](CCCCN)NC(=O)[C@H](CCC(=O)O)NC(=O)[C@H](CO)NC(=O)[C@@H](NC(=O)[C@@H](N)Cc1ccccc1)C(C)C)[C@@H](C)CC)C(=O)O [SSX2 41-49 (K41F, A42V, V49Abu)]	20 h	–
CCC[C@H](NC(=O)[C@H](Cc1ccc(O)cc1)NC(=O)[C@H](Cc1ccccc1)NC(=O)[C@@H](NC(=O)[C@H](CCCCN)NC(=O)[C@H](CCC(=O)O)NC(=O)[C@H](CO)NC(=O)[C@@H](NC(=O)[C@@H](N)Cc1ccccc1)C(C)C)[C@@H](C)CC)C(=O)O [SSX2 41-49 (K41F, A42V, V49Nva)]	20 h	–
CC[C@H](C)[C@H](NC(=O)[C@H](CCCCN)NC(=O)[C@H](CCC(=O)O)NC(=O)[C@H](CO)NC(=O)[C@H](C)NC(=O)[C@@H](N)CC1CCCCC1)C(=O)N[C@@H](Cc1ccccc1)C(=O)N[C@@H](Cc1ccc(O)cc1)C(=O)N[C@H](C(=O)O)C(C)C [SSX2 41-49 (K41(Cha))] (H-[Cha]ASEKIFYV-OH)	–	N/B

test system: T cell lines against natural epitope SSX-241-49; assay: Cross-reactivity and functional avidity: IFN-gamma production by T cell lines against SSX-2 41-49; format: cell-based, HHD transgenic mice; settings: IFN-gamma by ELISA, splenocytes of HHD mice immunized with SSX-2 41-49; native = 1

Molecule	Cross-reactivity and fct avidity (native to analogs)*
CC[C@H](C)[C@H](NC(=O)[C@H](CCCCN)NC(=O)[C@H](CCC(=O)O)NC(=O)[C@H](CO)NC(=O)[C@H](Cc1cccc2ccccc12)NC(=O)[C@@H](N)CCCCN)C(=O)N[C@@H](Cc1ccccc1)C(=O)N[C@@H](Cc1ccc(O)cc1)C(=O)N[C@H](C(=O)O)C(C)C [SSX2 41-49 (A42(Nal-1)), KNal-1SEKIFYV]	>10
CC[C@H](C)[C@H](NC(=O)[C@H](CCCCN)NC(=O)[C@H](CCC(=O)O)NC(=O)[C@H](CO)NC(=O)[C@H](C)NC(=O)[C@H](N)CCCCN)C(=O)N[C@@H](Cc1ccccc1)C(=O)N[C@@H](Cc1ccc(O)cc1)C(=O)N[C@H](C(=O)O)C(C)C [SSX2 41-49(K41(D-Lys))]	>10
CC[C@H](C)[C@H](NC(=O)[C@H](CCCCN)NC(=O)[C@H](CCC(=O)O)NC(=O)[C@H](CO)NC(=O)[C@@H](NC(=O)[C@@H](N)Cc1ccccc1)C(C)C)C(=O)N[C@@H](Cc1ccccc1)C(=O)N[C@@H](Cc1ccc(O)cc1)C(=O)NC(C)(C)C(=O)O [SSX2 41-49 (K41F, A42V, V49Aib)]	>10
FVSEKVFYV [SSX2 41-49 (K41F, A42V, I46V)]	1
CC[C@H](C)[C@H](NC(=O)[C@H](CCCCN)NC(=O)[C@H](CCC(=O)O)NC(=O)[C@H](CO)NC(=O)[C@@H](NC(=O)[C@@H](N)CCCCN)C(C)C)C(=O)N[C@@H](Cc1ccccc1)C(=O)N[C@@H](Cc1ccc(O)cc1)C(=O)N[C@H](C(N)=O)C(C)C [SSX2 41-49-NH2 (A42V)]	10
CC[C@H](C)[C@H](NC(=O)[C@H](CCCCN)NC(=O)[C@H](CCC(=O)O)NC(=O)[C@H](CO)NC(=O)[C@@H](C)NC(=O)[C@@H](N)CCCCN)C(=O)N[C@@H](Cc1ccccc1)C(=O)N[C@@H](Cc1ccc(O)cc1)C(=O)N[C@@H](C(=O)O)C(C)C [SSX2 41-49 (A42a, V49v), K(D-Ala)SEKIFY(D-Val)]	>10
CC[C@H](C)[C@H](NC(=O)[C@H](CCCCN)NC(=O)[C@H](CCC(=O)O)NC(=O)[C@H](CO)NC(=O)[C@H](CC(C)C)NC(=O)[C@@H](N)CCCCN)C(=O)N[C@@H](Cc1ccccc1)C(=O)N[C@@H](Cc1ccc(O)cc1)C(=O)N[C@H](C(N)=O)C(C)C [SSX2 41-49-NH2 (A42L)]	3
CC[C@H](C)[C@H](NC(=O)[C@H](CCCCN)NC(=O)[C@H](CCC(=O)O)NC(=O)[C@H](CO)NC(=O)[C@H](NC(=O)[C@@H](N)CCCCN)C(C)C)C(=O)N[C@@H](Cc1ccccc1)C(=O)N[C@@H](Cc1ccc(O)cc1)C(=O)N[C@H](C(=O)O)C(C)C [SSX2 41-49 (A42(D-Val)), K(D-Val)SEKIFYV]	3
CC[C@H](C)[C@H](NC(=O)[C@H](CCCCN)NC(=O)[C@H](CCC(=O)O)NC(=O)[C@H](CO)NC(=O)[C@@H](C)NC(=O)[C@@H](N)CCCCN)C(=O)N[C@@H](Cc1ccccc1)C(=O)N[C@@H](Cc1ccc(O)cc1)C(=O)N[C@H](C(=O)O)C(C)C [SSX2 41-49 (A42(D-Ala)), K(D-Ala)SEKIFYV]	10
CC[C@H](C)[C@H](NC(=O)[C@H](CCCCN)NC(=O)[C@H](CCC(=O)O)NC(=O)[C@H](CO)NC(=O)[C@H](C)NC(=O)[C@@H](N)CC1CCCCC1)C(=O)N[C@@H](Cc1ccccc1)C(=O)N[C@@H](Cc1ccc(O)cc1)C(=O)N[C@H](C(=O)O)C(C)C [SSX2 41-49 (K41(Cha))] (H-[Cha]ASEKIFYV-OH)	>10

same assay, conditions: wild-type peptide specific T cell line / CTL

Molecule	Activity / cross-reactivity in IFN-gamma assay relative to wild-type SSX-2 41-49
CC[C@H](C)[C@H](NC(=O)[C@H](CCCCN)NC(=O)[C@H](CCC(=O)O)NC(=O)[C@H](CO)NC(=O)[C@H](CC(C)C)NC(=O)[C@@H](N)CCCCN)C(=O)N[C@@H](Cc1ccccc1)C(=O)N[C@@H](Cc1ccc(O)cc1)C(=O)N[C@H](C(N)=O)C(C)C [SSX2 41-49-NH2 (A42L)]	lower concentration

test system: target cells coated with natural peptide; assay: In vivo cytotoxicity against natural SSX-2 peptide coated splenocytes (CFSE); set-up: species or system HHD mice; settings: spleen and blood; target cells coated with 20 or 1 ug/ml natural peptide

Molecule	In vivo cytotoxicity (% specific lysis) relative to natural peptide
FASEKIFYV [SSX2 41-49 (K41F)]	increased activity
YASEKIFYV [SSX2 41-49 (K41Y)]	increased activity
